From patent US20140287419A1, “Compositions Having Dicamba Decarboxylase Activity and Methods of Use” (priority 2013, published 2014)

B1: 65 (protein, listed as Ailuropoda melanoleuca)
chain: MAKIDVHSHILPKEWPDLKKRFGYGGWVQLQHHNKGEAKMMKDGKVFRVVQENCWDPEVRIREMDQTGVTVQALSTVPVMFSYWAKPQDTLDLCQLLNNDLAATVANHPRRFVGLGTLPMQAPELAVKEMERCVKELGFPGVQIGSHINEWDLNAKELFPVYAVAEKLNCSLFVHPWDMQMDGRMAKYWLPWLVGMPAETTTAICSMIMGGVFEKFPKLKVCFAHGGGAFPFTVGRISHGFNMRPDLCAQDNPINPKKYLGSFYTDSLVHDPLALKLLTDVIGKDKVILGTDYPFPLGELEPGKLIESMEEFEEETKDKLKAGNALAFLGLERKQFE
B2: 66 (protein, listed as Amphimedon queenslandica)
chain: MASGIKVDIHNHILPERWPDLKERYGYGGWIQLHHHCQGKARMLKDGQLFRVVDENCWSPEARIKDMDNTGVTVQALSTVPVMFSYWAKPEDTLDLCKILNNDLAQTVAKFPKRFVGLGTLPMQAPELAVQELKRCIKELGFPGVQIGSHVNEWNLDATELQCVFAAAEELNAAVFVHPWDMETGGRMSKYWLPWLVGMPAETATAICSVLFGGVLERHPNLKICFAHGGGSFPYTIGRIEHGFNVRPDLCATENSVNPRSYIGKVYTDSLVHDQKALKFLVDIIGEDRVVLGSDYPFPLGEHFPGKLIESIEEWDTSLKDKLLSKNAFEFLGLDPSQYET
B3: 67 (protein, listed as Amblyomma maculatum)
chain: MASSFSAAANLKIDLHAHVTPDRWPNLRERYGYGGWLDIKHESDKTAVMSYDDGRFFRRIESNCWNIDERIADMDRTGVTVQALSTTPVLFSYWAKPEDALDFSRLQNDFVASLVNRRPDRFVGMCTVPMQSPQLAAEELKRCVSQLGFRAVIVGSHINEWTLADRALDPFYRTVKELGVSIFVHPWDMPPSTRYNKYWLQWLVGMPAETTAAICEVIFGGLLERFPRLKLCFAHGAGSFPYTVGRIQHGFDVRPDLCAVDNKIPPKGYLGEIYADSLVHNRGSLRLLLDTLGEDRVMLGSDYPYPLGEIDRPGRLIETSGLQNSVKEKLLWKKCCELPRN

Assay: 14C assay with IPTG-induced recombinant E. coli cells (14CO2 capture from [14C]-carboxyl-labeled dicamba)
Details: for Dicamba Decarboxylase Activity: IPTG-induced recombinant E. coli cells, [14C]-carboxyl-labeled dicamba, 14CO2 capture; for Enzymatic Detection level: dicamba decarboxylation activity of the protein of the given SEQ ID NO

Molecule | Dicamba Decarboxylase Activity | Enzymatic Detection level
B1 | Low | Low
B2 | Low | Low
B3 | Low | Low
